The text below walks through data of paper PMC7360973, “Feedback regulation of heat shock factor 1 (Hsf1) activity by Hsp70‐mediated trimer unzipping and dissociation from DNA” (The EMBO Journal, 2020).

In the experiment the target is T1, Human heat shock transcription factor 1 (Hsf1), wild type (human, UniProt Q00613 1-529).
T1 construct: heat shock transcription factor 1 (Hsf1), human, wild type; Purified both as a monomer and as a trimer; One molecule is used for both states; the assay's format tells which was used; also called Hsf1wt; wt; source: E. coli BL21 (DE3) Rosetta, purified (Ni-IDA, Ulp1 cleavage, Superdex 200); monomeric and trimeric fractions collected separately; not shown: His6-SUMO, N-terminal, cleaved
T1 sequence (looked up): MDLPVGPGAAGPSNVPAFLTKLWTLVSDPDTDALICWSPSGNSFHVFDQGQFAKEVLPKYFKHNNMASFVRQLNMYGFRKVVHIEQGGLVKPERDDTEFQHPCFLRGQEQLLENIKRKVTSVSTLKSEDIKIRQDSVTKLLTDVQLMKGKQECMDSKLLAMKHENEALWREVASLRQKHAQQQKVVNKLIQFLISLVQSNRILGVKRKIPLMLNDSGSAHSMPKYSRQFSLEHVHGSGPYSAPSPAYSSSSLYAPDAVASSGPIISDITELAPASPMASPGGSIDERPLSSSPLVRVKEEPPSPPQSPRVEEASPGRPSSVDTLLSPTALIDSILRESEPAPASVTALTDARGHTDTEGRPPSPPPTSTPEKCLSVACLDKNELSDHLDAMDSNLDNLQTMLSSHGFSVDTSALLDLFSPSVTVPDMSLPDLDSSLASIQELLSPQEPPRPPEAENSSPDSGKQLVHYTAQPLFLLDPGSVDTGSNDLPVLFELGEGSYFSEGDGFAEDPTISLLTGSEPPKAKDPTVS
As to the kind of experiment: HDX-MS; 6 μM Hsf1 (monomer or trimer) pre-incubated 30 min at 25°C with 12 μM Hsc70 or 9 μM DnaJB1 in 25 mM HEPES/NaOH pH 7.5, 150 mM NaCl, 10% glycerol, 2 mM DTT; diluted 10-fold in D2O buffer, 30 s at 25°C; online pepsin digestion. Conditions: both partners purified.

B1: Human DnaJB1/Hdj1 (natural protein)
chain: MGKDYYQTLGLARGASDEEIKRAYRRQALRYHPDKNKEPGAEEKFKEIAEAYDVLSDPRKREIFDRYGEEGLKGSGPSGGSGGGANGTSFSYTFHGDPHAMFAEFFGGRNPFDTFFGQRNGEEGMDIDDPFSGFPMGMGGFTNVNFGRSRSAQEPARKKQ[about 150 residues not spelt out]PERIPQTSRTVLEQVLPI
notes: DnaJB1/Hdj1/Hsp40, J-domain co-chaperone, human, wild type; also called Hsp40; source: E. coli BL21 (DE3) Rosetta, purified (Ni-IDA, Ulp1 cleavage, reverse Ni-IDA, Superdex 200)
For the molecule B1, the binding result is given as “binds”.
